Here are results for four molecules from patent EP4538286A1 (Adlai Nortye Biopharma Co., Ltd., dated 2025).

Residue numbers refer to the chain shown, from its start. In names and notes the source's numbering stands.

One test addresses T1, human PD-L1 protein (human, UniProt Q9NZQ7 part only).
T1 construct: bought protein coated on the ELISA plate; also called human PDL1 antigen
Put plainly: ELISA, plate-coated human PD-L1. For orientation: An ELISA detects its analyte on a solid surface through an enzyme-linked reagent.

The target of test [1] is PD-L1 on TCR activator PD-L1-CHO cells (UniProt Q9NZQ7). Put plainly: cell-based or functional assay.

human PD-L1 protein, sequence (Q9NZQ7 19-238 limits assumed): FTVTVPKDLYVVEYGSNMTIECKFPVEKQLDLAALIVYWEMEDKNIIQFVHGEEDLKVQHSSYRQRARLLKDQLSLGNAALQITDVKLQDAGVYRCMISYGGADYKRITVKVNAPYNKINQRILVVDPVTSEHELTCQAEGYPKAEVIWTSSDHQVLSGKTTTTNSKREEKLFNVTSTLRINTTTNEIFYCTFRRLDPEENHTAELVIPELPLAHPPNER

B1: Abs-427 (Fc fusion)
chain: VIHVTKEVKEVATLSCGHNVSVEELAQTRIYWQKNKKMVLTMMSGDMNIWPEYKNRTIFDITNNLSIVILELRPSDEGTYECVVLKYEKDAFKREHLAEVTLSVKAD[human IgG4 Fc not listed]
notes: human IgG4 Fc fusion; also called CD80 IgV mutant E35N/A71E-IgG4 Fc fusion
Regarding B1, in the test with human PD-L1 protein, the “Binding strength @ 100nM” value amounted to 400% and the EC50 (in general, the concentration giving half of the maximal effect) turned out to be 26.4 nM.

B2: Abs-429 (Fc fusion)
chain: B1 chain with E71Q
notes: human IgG4 Fc fusion; also called CD80 IgV mutant E35N/A71Q-IgG4 Fc fusion
For the molecule B2, the binding result in the test with human PD-L1 protein is reported as “no binding”.

B3: Abs-428 (Fc fusion)
chain: B1 chain with E71N
notes: human IgG4 Fc fusion; also called CD80 IgV mutant E35N/A71N-IgG4 Fc fusion
As to B3, in the test with human PD-L1 protein, the “Binding strength @ 100nM” value turned out to be 400% and the EC50 amounted to 26.9 nM. In test [1], the “EC50(nM), Jurkat-NFAT-Luc/CHO-PDL1” value came to 4.2 nM and the “The highest induction relative to IgG control” value is 200%.

B4: Abs-483 (Fc fusion)
chain: B1 chain with E71T
notes: human IgG4 Fc fusion; also called CD80 IgV mutant E35N/A71T-IgG4 Fc fusion
On to B4, for which, in the test with human PD-L1 protein, the “Binding strength @ 100nM” value was determined as 700% and the EC50 turned out to be 22.9 nM.
